Experimental data: patent publication EP0575490B1, “GnRH ANALOGS” (THE SALK INSTITUTE FOR BIOLOGICAL STUDIES, priority 1991, dated 1992)
Where “and” joins values, the source holds several entries; their conditions need not be identical. Identical values can stand only once. At least one peptide structure holds a part that was inferred or is arguable (an end, a ring closure or a residue). Numbered stars: 1 amine (or outer) side, 2 acyl side, 3 side chain; on linkers, the order of the positions; unused ones are H or OH. Square brackets hold non-standard residues; d marks the D form. Peptide text beside a SMILES is read from it. Phe(4-NH(5-NH2triazol-3-yl)) = Nc1nc(Nc2ccc(C[C@H](N)C(=O)O)cc2)n[nH]1; X1 = Nc1nc(Nc2ccc(C[C@@H](N[*:1])C(=O)[*:2])cc2)n[nH]1; dPhe(4-Cl) = N[C@H](Cc1ccc(Cl)cc1)C(=O)O; dPhe(4-F) = N[C@H](Cc1ccc(F)cc1)C(=O)O; d2Nal = N[C@H](Cc1ccc2ccccc2c1)C(=O)O; Lys(iPr) = CC(C)NCCCC[C@H](N)C(=O)O; d3Pal = N[C@H](Cc1cccnc1)C(=O)O; NMeL = CN[C@@H](CC(C)C)C(=O)O

Columns and labels:
[1] = tested on: female Sprague-Dawley rats; experiment: in vivo test of effectiveness to prevent ovulation in female rats; details: for biological potency in vivo compared with the parent peptide: biological testing in vivo, C-terminus changed instead of D-Ala-NH2; for Rats Ovulating: injected at about noon on the day of proestrus, rats ovulating / rats treated
[2] = tested on: histamine release; experiment: in vitro histamine release assay; assay type: cell-based
[3] = tested on: adult castrate male Sprague-Dawley rats; experiment: LH levels in the bloodstream of castrate male rats after single IV bolus injection; assay type: in vivo; details: 50 microgram IV single bolus, monitored at about 3, 24, 36 and 48 hours, versus control and Nal-Glu antagonist

Row | SMILES | biological potency in vivo compared with the parent peptide [1] | Rats Ovulating ([1]; dosage 1.0 micrograms per rat) | Rats Ovulating ([1]; dosage 2.5 micrograms per rat) | In Vitro histamine release: ED50 ± SEM [2] [mg/L] | Rats Ovulating ([1]; dosage 0.5 micrograms per rat) | also measured
1 | CCNC(=O)[C@@H]1CCCN1C(=O)[C@H](CCCCNC(C)C)NC(=O)[C@H](CC(C)C)NC(=O)[C@@H](Cc1ccc(Nc2n[nH]c(N)n2)cc1)NC(=O)[C@H](Cc1ccc(Nc2n[nH]c(N)n2)cc1)NC(=O)[C@H](CO)NC(=O)[C@@H](Cc1cccnc1)NC(=O)[C@@H](Cc1ccc(Cl)cc1)NC(=O)[C@@H](Cc1ccc2ccccc2c1)NC(C)=O [Peptide 114B] (Ac-[d2Nal][dPhe(4-Cl)][d3Pal]S[Phe(4-NH(5-NH2triazol-3-yl))][X1]L[Lys(iPr)]P-NHEt) | just slightly less biological potency than for Peptide 103A | 8/9 | 0/8 | – | – | –
2 | CC(=O)N[C@H](Cc1ccc2ccccc2c1)C(=O)N[C@H](Cc1ccc(Cl)cc1)C(=O)N[C@H](Cc1cccnc1)C(=O)N[C@@H](CO)C(=O)N[C@@H](Cc1ccc(Nc2n[nH]c(N)n2)cc1)C(=O)N[C@H](Cc1ccc(Nc2n[nH]c(N)n2)cc1)C(=O)N[C@@H](CC(C)C)C(=O)N[C@@H](CCCCNC(C)C)C(=O)N1CCC[C@H]1C(=O)N[C@H](C)C(N)=O [Peptide 103A, [Ac-β-D-2NAL^1, (4Cl)D-Phe^2, D-3PAL^3, Aph(tcg)^5, D-Aph(tcg)^6, ILys^8, D-Ala^10]-GnRH] (Ac-[d2Nal][dPhe(4-Cl)][d3Pal]S[Phe(4-NH(5-NH2triazol-3-yl))][X1]L[Lys(iPr)]P[dA]-NH2) | – | 0 out of 7 and 1/17 | 0 out of 8 and 0/8 | 50 ± 6.7 | 8 out of 18 and 8/18 | level of circulating LH in the bloodstream [3]: surprisingly effective to suppress the level of circulating LH
3 | CC(=O)N[C@H](Cc1ccc2ccccc2c1)C(=O)N[C@H](Cc1ccc(F)cc1)C(=O)N[C@H](Cc1c[nH]c2ccccc12)C(=O)N[C@@H](CO)C(=O)N[C@@H](Cc1ccc(O)cc1)C(=O)N[C@H](CCCNC(=N)N)C(=O)N[C@@H](CC(C)C)C(=O)N[C@@H](CCCNC(=N)N)C(=O)N1CCC[C@H]1C(=O)NCC(N)=O [[Ac-D-2NAL^1, (4F)D-Phe^2, D-Trp^3, D-Arg^6]-GnRH, reference compound] (Ac-[d2Nal][dPhe(4-F)][dW]SY[dR]LRPG-NH2) | – | – | – | 0.17 ± 0.01 | – | –
4 | CC(=O)N[C@H](Cc1ccc2ccccc2c1)C(=O)N[C@H](Cc1ccc(Cl)cc1)C(=O)N[C@H](Cc1cccnc1)C(=O)N[C@@H](CO)C(=O)N[C@@H](Cc1ccc(Nc2n[nH]c(N)n2)cc1)C(=O)N[C@H](Cc1ccc(Nc2n[nH]c(N)n2)cc1)C(=O)N(C)[C@@H](CC(C)C)C(=O)N[C@@H](CCCCNC(C)C)C(=O)N1CCC[C@H]1C(=O)N[C@H](C)C(N)=O [Peptide 111A] (Ac-[d2Nal][dPhe(4-Cl)][d3Pal]S[Phe(4-NH(5-NH2triazol-3-yl))][X1][NMeL][Lys(iPr)]P[dA]-NH2) | – | 0/8 | – | – | 6/10 | –
5 | CC(=O)N[C@H](Cc1ccc2ccccc2c1)C(=O)N[C@H](Cc1ccc(Cl)cc1)C(=O)N[C@H](Cc1ccc(Nc2n[nH]c(N)n2)cc1)C(=O)N[C@@H](CO)C(=O)N[C@@H](Cc1ccc(O)cc1)C(=O)N[C@H](Cc1cccnc1)C(=O)N[C@@H](CC(C)C)C(=O)N[C@@H](CCCCNC(C)C)C(=O)N1CCC[C@H]1C(=O)N[C@H](C)C(N)=O [Peptide 127A] (Ac-[d2Nal][dPhe(4-Cl)][X1]SY[d3Pal]L[Lys(iPr)]P[dA]-NH2) | – | – | – | – | – | Rats Ovulating ([1]; dosage 15 micrograms per rat): 1/5
6 | CC(=O)N[C@H](Cc1ccc2ccccc2c1)C(=O)N[C@H](Cc1ccc(Cl)cc1)C(=O)N[C@H](Cc1cccnc1)C(=O)N[C@@H](CO)C(=O)N[C@@H](Cc1ccc(Nc2n[nH]c(N)n2)cc1)C(=O)N[C@H](Cc1ccc(Nc2n[nH]c(N)n2)cc1)C(=O)N[C@@H](CC(C)C)C(=O)N[C@@H](CCCCNC(C)C)C(=O)N1CCC[C@H]1C(=O)NCC(N)=O [Peptide 116A] (Ac-[d2Nal][dPhe(4-Cl)][d3Pal]S[Phe(4-NH(5-NH2triazol-3-yl))][X1]L[Lys(iPr)]PG-NH2) | only slightly less biologically potent than Peptide 103A | 9/16 | – | – | – | –
